According to the supplement of paper PMC4967469:
pIC50: −log10 of the molar value. By IC50 is meant the dose at which the fit gives 50% viability; fits outside the tested doses are given as limits. AUC is the area under the same curve over the 256-fold range up to the top dose, as a fraction; the more sensitive the line, the further below 1. For some of these results: Any top dose called inferred was calculated from the reported fits. For some of these results: An entry number marks a drug with two screens in the source, which often give different values.

Legend:
Assay in all cases: Viability of human cancer cell lines after 72 h of drug (GDSC screen)
AMG-706 = compound: CC1(C)CNc2cc(NC(=O)c3cccnc3NCc3ccncc3)ccc21 [AMG-706]; settings: top dose 2 µM; top dose inferred
Protocol: (§1)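 Human cancer cell lines in 384-well plates, medium with 10% serum, drug for 72 h over a 256-fold dose range (nine 2-fold or five 4-fold steps up to the top dose). Adherent lines were fixed and stained with the nucleic acid dye Syto60, suspension lines read with resazurin; signal relative to control wells, capped at 0 and 100%. One two-parameter sigmoid per drug and line, fitted in a mixed model over all curves with the slope shared within a line.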

JNK Inhibitor VIII = compound: CCOc1nc(NC(=O)Cc2cc(OC)ccc2OC)cc(N)c1C#N [JNK Inhibitor VIII]; settings: top dose 10 µM; top dose inferred
Protocol: as §1

NSC-207895 = compound: CN1CCN(c2ccc([N+](=O)[O-])c3no[n+]([O-])c23)CC1 [NSC-207895]; settings: top dose 20 µM; top dose inferred
Protocol: as §1

FTI-277 = compound: COC(=O)[C@H](CCSC)NC(=O)c1ccc(NC[C@@H](N)CS)cc1-c1ccccc1 [FTI-277]; settings: top dose 1.024 µM; top dose inferred
Protocol: as §1

YM155 = compound: COCC[n+]1c2c(n(Cc3cnccn3)c1C)C(=O)c1ccccc1C2=O [YM155]; settings: top dose 5.12 µM
Protocol: as §1

OSI-906 = compound: C[C@]1(O)C[C@@H](c2nc(-c3ccc4ccc(-c5ccccc5)nc4c3)c3c(N)nccn32)C1 [OSI-906]; settings: top dose 2.56 µM; top dose inferred
Protocol: as §1

SB-715992 = compound: Cc1ccc(C(=O)N(CCCN)[C@@H](c2nc3cc(Cl)ccc3c(=O)n2Cc2ccccc2)C(C)C)cc1 [SB-715992]; settings: top dose 0.128 µM; top dose inferred
Protocol: as §1

JQ1 = compound: Cc1sc2c(c1C)C(c1ccc(Cl)cc1)=N[C@@H](CC(=O)OC(C)(C)C)c1nnc(C)n1-2 [JQ1]
Protocol: as §1

Belinostat = compound: O=C(/C=C/c1cccc(S(=O)(=O)Nc2ccccc2)c1)NO [Belinostat]; settings: top dose 20 µM; top dose inferred
Protocol: as §1

JNJ-26854165 = compound: c1ccc2c(CCNc3ccc(Nc4ccncc4)cc3)c[nH]c2c1 [JNJ-26854165]; settings: top dose 10 µM
Protocol: as §1

[1] = top dose 1 µM, screen: GDSC drug entry 1218, top dose inferred
[2] = top dose 2.56 µM, screen: GDSC drug entry 163

Cell Line	AUC (AMG-706)	pIC50 (AMG-706)	AUC (JNK Inhibitor VIII)	pIC50 (JNK Inhibitor VIII)	AUC (NSC-207895)	pIC50 (NSC-207895)	AUC (FTI-277)	pIC50 (FTI-277)	AUC (YM155)	pIC50 (YM155)	AUC (OSI-906)	pIC50 (OSI-906)	AUC (SB-715992)	pIC50 (SB-715992)	AUC (JQ1; [1])	pIC50 (JQ1; [1])	AUC (JQ1; [2])	pIC50 (JQ1; [2])	AUC (Belinostat)	pIC50 (Belinostat)	AUC (JNJ-26854165)	pIC50 (JNJ-26854165)
H3255 (lung adenocarcinoma, adherent)	0.957	< 5.70	0.954	< 5.00	0.982	< 4.70	0.984	< 5.99	0.289	7.15	0.955	< 5.59	0.923	< 6.89	0.963	< 6.00	0.871	< 5.59	0.676	5.37	0.9	< 5.00
HARA (lung squamous cell carcinoma, adherent)	0.948	< 5.70	0.965	< 5.00	0.982	< 4.70	0.958	< 5.99	0.04	> 7.70	0.966	< 5.59	0.728	7.40	0.981	< 6.00	0.821	5.74	0.503	5.89	0.745	5.44
HCC1143 (breast, adherent)	0.978	< 5.70	0.98	< 5.00	0.964	< 4.70	0.97	< 5.99	0.274	7.25	0.802	5.72	0.831	< 6.89	0.947	< 6.00	0.869	< 5.59	0.561	5.71	0.895	< 5.00
HCC1806 (breast, adherent)	0.976	< 5.70	0.974	< 5.00	0.959	< 4.70	0.983	< 5.99	0.046	> 7.70	0.961	< 5.59	0.733	7.46	0.988	< 6.00	0.898	< 5.59	0.465	6.00	0.829	5.26
HCC-15 (lung squamous cell carcinoma, adherent)	0.982	< 5.70	0.979	< 5.00	0.961	< 4.70	0.958	< 5.99	0.125	> 7.70	0.972	< 5.59	0.912	< 6.89	0.978	< 6.00	0.844	< 5.59	0.797	4.90	0.921	< 5.00
HDQ-P1 (breast, adherent)	0.981	< 5.70	0.985	< 5.00	0.868	< 4.70	0.984	< 5.99	0.068	> 7.70	0.835	5.66	0.963	< 6.89	0.978	< 6.00	0.953	< 5.59	0.413	6.16	0.954	< 5.00
HLE (liver, adherent)	0.989	< 5.70	0.952	< 5.00	0.525	5.84	0.982	< 5.99	0.052	> 7.70	0.967	< 5.59	0.928	< 6.89	0.987	< 6.00	0.75	6.10	0.344	6.32	0.824	5.26
HOS (osteosarcoma, adherent)	0.986	< 5.70	0.975	< 5.00	0.992	< 4.70	0.98	< 5.99	0.941	< 5.29	0.992	< 5.59	0.992	< 6.89	0.992	< 6.00	0.759	6.12	0.992	< 4.70	0.833	5.30
Hep 3B2_1-7 (liver, adherent)	0.909	< 5.70	0.929	< 5.00	0.962	< 4.70	0.986	< 5.99	0.507	6.48	0.735	6.13	0.979	< 6.89	0.889	< 6.00	0.56	6.63	0.43	6.09	0.833	5.19
Hs683 (glioma, adherent)	0.979	< 5.70	0.956	< 5.00	0.983	< 4.70	0.98	< 5.99	0.822	5.52	0.988	< 5.59	0.661	7.65	0.987	< 6.00	0.712	6.19	0.852	4.80	0.845	5.13
HuCCT1 (biliary tract, adherent)	0.976	< 5.70	0.982	< 5.00	0.731	5.21	0.962	< 5.99	0.03	> 7.70	0.981	< 5.59	0.897	< 6.89	0.98	< 6.00	0.529	6.71	0.467	6.00	0.869	< 5.00
HuP-T4 (pancreas, adherent)	0.98	< 5.70	0.977	< 5.00	0.941	< 4.70	0.977	< 5.99	0.028	> 7.70	0.979	< 5.59	0.725	7.44	–	–	0.85	5.67	0.373	6.26	0.954	< 5.00
JEG-3 (urogenital system, adherent)	0.98	< 5.70	0.989	< 5.00	0.957	< 4.70	0.989	< 5.99	0.785	5.71	0.991	< 5.59	0.966	< 6.89	0.987	< 6.00	0.776	6.03	0.991	< 4.70	0.955	< 5.00
JHH-2 (liver, adherent)	0.961	< 5.70	0.964	< 5.00	0.576	5.69	0.946	< 5.99	0.031	> 7.70	0.967	< 5.59	0.938	< 6.89	0.916	< 6.00	0.986	< 5.59	0.414	6.15	0.959	< 5.00
JHH-7 (liver, adherent)	0.984	< 5.70	0.985	< 5.00	0.979	< 4.70	0.93	< 5.99	0.823	5.56	0.961	< 5.59	0.963	< 6.89	0.988	< 6.00	0.785	5.99	0.566	5.73	0.869	5.08
KMRC-20 (kidney, adherent)	0.966	< 5.70	0.986	< 5.00	0.92	< 4.70	0.975	< 5.99	0.052	> 7.70	0.983	< 5.59	0.986	< 6.89	0.987	< 6.00	0.96	< 5.59	0.693	5.36	0.891	< 5.00
KYSE-510 (oesophagus, adherent)	0.983	< 5.70	0.978	< 5.00	0.989	< 4.70	0.992	< 5.99	0.271	7.09	0.991	< 5.59	0.953	< 6.89	0.99	< 6.00	0.654	6.40	0.514	5.87	0.812	5.37
LC-1-sq (lung squamous cell carcinoma, adherent)	0.965	< 5.70	0.98	< 5.00	0.98	< 4.70	0.977	< 5.99	0.39	6.82	0.956	< 5.59	0.788	7.18	0.983	< 6.00	0.769	5.95	0.452	6.04	0.856	< 5.00
LCLC-97TM1 (large cell lung carcinoma, adherent)	0.983	< 5.70	0.982	< 5.00	0.796	4.98	0.906	< 5.99	0.03	> 7.70	0.525	6.73	0.641	7.69	0.981	< 6.00	0.471	6.88	0.398	6.20	0.883	< 5.00
LU-135 (small cell lung carcinoma, suspension)	0.985	< 5.70	0.99	< 5.00	0.642	5.54	0.991	< 5.99	0.016	> 7.70	0.987	< 5.59	0.973	< 6.89	0.992	< 6.00	0.819	5.94	0.112	7.01	0.878	5.14
MC-IXC (neuroblastoma, adherent)	0.996	< 5.70	0.996	< 5.00	0.69	5.44	0.987	< 5.99	0.015	> 7.70	0.883	5.82	0.414	8.31	0.996	< 6.00	0.654	6.42	0.314	6.35	0.803	5.45
MDA-MB-157 (breast, adherent)	0.947	< 5.70	0.988	< 5.00	0.988	< 4.70	0.981	< 5.99	0.325	6.99	0.983	< 5.59	0.981	< 6.89	0.983	< 6.00	0.803	5.88	0.548	5.77	0.898	< 5.00
MDA-MB-361 (breast, adherent)	0.974	< 5.70	0.988	< 5.00	0.983	< 4.70	0.95	< 5.99	0.535	6.40	0.98	< 5.59	0.983	< 6.89	0.986	< 6.00	0.59	6.55	0.395	6.19	0.831	5.20
ME-180 (cervix, adherent)	0.948	< 5.70	0.958	< 5.00	0.96	< 4.70	0.985	< 5.99	0.055	> 7.70	0.984	< 5.59	0.658	7.65	0.768	6.41	0.743	6.08	0.408	6.16	0.971	< 5.00
